Laboratory results from paper PMC4538817.
No constants are given. Whether binding was seen depends on the method and setting. In cells and extracts the contact can be indirect. Some entries that bind do so weakly or less than the wild type. Tags and fused reporters may be left off the sequences shown.

Amino acid sequences for entries named in this document (tags omitted).
UniProt Q9Y6K9: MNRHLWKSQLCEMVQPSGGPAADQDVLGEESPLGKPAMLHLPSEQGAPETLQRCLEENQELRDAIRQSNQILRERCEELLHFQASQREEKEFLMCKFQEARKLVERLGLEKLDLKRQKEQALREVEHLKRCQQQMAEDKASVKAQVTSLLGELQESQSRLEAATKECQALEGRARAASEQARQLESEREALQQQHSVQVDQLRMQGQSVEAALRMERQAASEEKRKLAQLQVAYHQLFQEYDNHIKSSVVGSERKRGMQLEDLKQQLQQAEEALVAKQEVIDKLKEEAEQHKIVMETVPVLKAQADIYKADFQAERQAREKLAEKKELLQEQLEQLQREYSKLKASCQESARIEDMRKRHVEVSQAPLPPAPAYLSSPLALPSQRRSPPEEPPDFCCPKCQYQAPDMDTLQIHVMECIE

T1: Flag-FKBP51 (pRK5 FKBP51 WT) (UniProt Q13451)
T1 sequence: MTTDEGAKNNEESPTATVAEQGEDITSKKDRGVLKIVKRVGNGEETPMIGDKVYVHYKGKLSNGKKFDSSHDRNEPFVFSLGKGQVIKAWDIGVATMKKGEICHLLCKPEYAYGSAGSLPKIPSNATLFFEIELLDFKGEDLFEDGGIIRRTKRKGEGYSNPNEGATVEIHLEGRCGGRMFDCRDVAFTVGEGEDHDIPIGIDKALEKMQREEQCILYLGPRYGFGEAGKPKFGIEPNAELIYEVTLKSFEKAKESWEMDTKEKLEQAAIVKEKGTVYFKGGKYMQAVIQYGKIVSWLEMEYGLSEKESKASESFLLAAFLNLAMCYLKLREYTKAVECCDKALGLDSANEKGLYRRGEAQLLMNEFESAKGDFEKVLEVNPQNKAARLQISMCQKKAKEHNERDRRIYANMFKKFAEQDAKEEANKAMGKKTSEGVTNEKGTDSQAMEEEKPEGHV


How the values were obtained:
[1] = target: HA-tagged human IKKγ (human), Q9Y6K9; assay: co-IP; HEK293 transfected; IKKγ immunoprecipitated (anti-IKKγ), blot with anti-HA, anti-IKKα/β, anti-TRAF2 or anti-Flag; RIPA buffer; cells silenced or not for FKBP51 (Figure 2B); with Flag-FKBP51 or its mutants (Figure 5B, 5C); conditions: remark: other sources report otherwise
[2] = target: HA-tagged human IKKγ (human) (UniProt Q9Y6K9); assay: as above
[3] = target: T1, Flag-FKBP51 (pRK5 FKBP51 WT); assay: co-IP; HEK293T (legends: HEK293) co-transfected with Flag-FKBP51 or its mutants and HA-tagged partners; anti-Flag immunoprecipitation, blot with anti-HA, anti-TRAF2 or anti-IKKα/β; RIPA buffer; with or without FK506 (Figure 3B); the precipitating antibody is not told for Figures 3B and 4B

Row | Binder | binding [1] | binding [2] | other results
1 | Flag-FKBP51 (pRK5 FKBP51 WT) (protein, UniProt Q13451 1-457) MTTDEGAKNNEESPTATVAEQGEDITSKKDRGVLKIVKRVGNGEETPMIGDKVYVHYKGKLSNGKKFDSSHDRNEPFVFSLGKGQVIKAWDIGVATMKKGEICHLLCKPEYAYGSAGSLPKIPSNATLFFEIELLDFKGEDLFEDGGIIRRTKRKGEGYSNPNEGATVEIHLEGRCGGRMFDCRDVAFTVGEGEDHDIPIGIDKALEKMQREEQCILYLGPRYGFGEAGKPKFGIEPNAELIYEVTLKSFEKAKESWEMDTKEKLEQAAIVKEKGTVYFKGGKYMQAVIQYGKIVSWLEMEYGLSEKESKASESFLLAAFLNLAMCYLKLREYTKAVECCDKALGLDSANEKGLYRRGEAQLLMNEFESAKGDFEKVLEVNPQNKAARLQISMCQKKAKEHNERDRRIYANMFKKFAEQDAKEEANKAMGKKTSEGVTNEKGTDSQAMEEEKPEGHV | – | binds | –
2 | HA-tagged human TAK1 (protein, UniProt O43318 1-606) MSTASAASSSSSSSAGEMIEAPSQVLNFEEIDYKEIEVEEVVGRGAFGVVCKAKWRAKDVAIKQIESESERKAFIVELRQLSRVNHPNIVKLYGACLNPVCLVMEYAEGGSLYNVLHGAEPLPYYTAAHAMSWCLQCSQGVAYLHSMQPKALIHRDLKPPNLLLVAGGTVLKICDFGTACDIQTHMTNNKGSAAWMAPEVFEGSNYSEKCDVFSWGIILWEVITRRKPFDEIGGPAFRIMWAVHNGTRPPLIKNLPKPIESLMTRCWSKDPSQRPSMEEIVKIMTHLMRYFPGADEPLQYPCQYSDEGQSNSATSTGSFMDIASTNTSNKSDTNMEQVPATNDTIKRLESKLLKNQAKQQSESGRLSLGASRGSSVESLPPTSEGKRMSADMSEIEARIAATTAYSKPKRGHRKTASFGNILDVPEIVISGNGQPRRRSIQDLTVTGTEPGQVSSRSSSPSVRMITTSGPTSEKPTRSHPWTPDDSTDTNGSDNSIPMAYLTLDHQLQPLAPCPNSKESMAVFEQHCKMAQEYMKVQTEIALLLQRKQELVAELDQDEKDQQNTSRLVQEHKKLLDENKSLSTYYQQCKKQLEVIRSQQQKRQGTS | – | – | binding [3]: binds
3 | Flag-FKBP51-mutTPR (pRK5 FKBP51-TPR-mut; K352A/R356A) (protein, UniProt Q13451 1-457) MTTDEGAKNNEESPTATVAEQGEDITSKKDRGVLKIVKRVGNGEETPMIGDKVYVHYKGKLSNGKKFDSSHDRNEPFVFSLGKGQVIKAWDIGVATMKKGEICHLLCKPEYAYGSAGSLPKIPSNATLFFEIELLDFKGEDLFEDGGIIRRTKRKGEGYSNPNEGATVEIHLEGRCGGRMFDCRDVAFTVGEGEDHDIPIGIDKALEKMQREEQCILYLGPRYGFGEAGKPKFGIEPNAELIYEVTLKSFEKAKESWEMDTKEKLEQAAIVKEKGTVYFKGGKYMQAVIQYGKIVSWLEMEYGLSEKESKASESFLLAAFLNLAMCYLKLREYTKAVECCDKALGLDSANEAGLYARGEAQLLMNEFESAKGDFEKVLEVNPQNKAARLQISMCQKKAKEHNERDRRIYANMFKKFAEQDAKEEANKAMGKKTSEGVTNEKGTDSQAMEEEKPEGHV | – | no binding | –
4 | Flag-FKBP51-mutPPIase (pRK5 FKBP51-PPIase-mut; FD67DV) (protein, UniProt Q13451 1-457) MTTDEGAKNNEESPTATVAEQGEDITSKKDRGVLKIVKRVGNGEETPMIGDKVYVHYKGKLSNGKKDVSSHDRNEPFVFSLGKGQVIKAWDIGVATMKKGEICHLLCKPEYAYGSAGSLPKIPSNATLFFEIELLDFKGEDLFEDGGIIRRTKRKGEGYSNPNEGATVEIHLEGRCGGRMFDCRDVAFTVGEGEDHDIPIGIDKALEKMQREEQCILYLGPRYGFGEAGKPKFGIEPNAELIYEVTLKSFEKAKESWEMDTKEKLEQAAIVKEKGTVYFKGGKYMQAVIQYGKIVSWLEMEYGLSEKESKASESFLLAAFLNLAMCYLKLREYTKAVECCDKALGLDSANEKGLYRRGEAQLLMNEFESAKGDFEKVLEVNPQNKAARLQISMCQKKAKEHNERDRRIYANMFKKFAEQDAKEEANKAMGKKTSEGVTNEKGTDSQAMEEEKPEGHV | – | no binding | –

Further lines, with some results ahead:

Row | binding [1] | binding [2] | Binder | other results
5 | binds | – | HA-tagged human TRAF2, Q12933 1-501 (protein) MAAASVTPPGSLELLQPGFSKTLLGTKLEAKYLCSACRNVLRRPFQAQCGHRYCSFCLASILSSGPQNCAACVHEGIYEEGISILESSSAFPDNAARREVESLPAVCPSDGCTWKGTLKEYESCHEGRCPLMLTECPACKGLVRLGEKERHLEHECPERSLSCRHCRAPCCGADVKAHHEVCPKFPLTCDGCGKKKIPREKFQDHVKTCGKCRVPCRFHAIGCLETVEGEKQQEHEVQWLREHLAMLLSSVLEAKPLLGDQSHAGSELLQRCESLEKKTATFENIVCVLNREVERVAMTAEACSRQHRLDQDKIEALSSKVQQLERSIGLKDLAMADLEQKVLEMEASTYDGVFIWKISDFARKRQEAVAGRIPAIFSPAFYTSRYGYKMCLRIYLNGDGTGRGTHLSLFFVVMKGPNDALLRWPFNQKVTLMLLDQNNREHVIDAFRPDVTSSSFQRPVNDMNIASGCPLFCPVSKMEAKNSYVRDDAIFIKAIVDLTGL | –
6 | binds | – | HA-tagged human IKKα, O15111 1-745 (protein) MERPPGLRPGAGGPWEMRERLGTGGFGNVCLYQHRELDLKIAIKSCRLELSTKNRERWCHEIQIMKKLNHANVVKACDVPEELNILIHDVPLLAMEYCSGGDLRKLLNKPENCCGLKESQILSLLSDIGSGIRYLHENKIIHRDLKPENIVLQDVGGKIIHKIIDLGYAKDVDQGSLCTSFVGTLQYLAPELFENKPYTATVDYWSFGTMVFECIAGYRPFLHHLQPFTWHEKIKKKDPKCIFACEEMSGEVRFSSHLPQPNSLCSLVVEPMENWLQLMLNWDPQQRGGPVDLTLKQPRCFVLMDHILNLKIVHILNMTSAKIISFLLPPDESLHSLQSRIERETGINTGSQELLSETGISLDPRKPASQCVLDGVRGCDSYMVYLFDKSKTVYEGPFASRSLSDCVNYIVQDSKIQLPIIQLRKVWAEAVHYVSGLKEDYSRLFQGQRAAMLSLLRYNANLTKMKNTLISASQQLKAKLEFFHKSIQLDLERYSEQMTYGISSEKMLKAWKEMEEKAIHYAEVGVIGYLEDQIMSLHAEIMELQKSPYGRRQGDLMESLEQRAIDLYKQLKHRPSDHSYSDSTEMVKIIVHTVQSQDRVLKELFGHLSKLLGCKQKIIDLLPKVEVALSNIKEADNTVMFMQGKRQKEIWHLLKIACTQSSARSLVGSSLEGAVTPQTSAWLPPTSAEHDHSLSCVVTPQDGETSAQMIEENLNCLGHLSTIIHEANEEQGNSMMNLDWSWLTE | –
